From PubChem BioAssay AID720709 (National Center for Advancing Translational Sciences (NCATS), 2013)
Screen size: about 360,000 compounds; about 520 (0.14%) were called active. This list was built around the results that the source calls inconclusive (neither active nor inactive); the mix of calls is not that of the screen. The call rests on the fitted dose curve; in most records, active means well fitted inhibition curve with a large enough effect; inconclusive means small, poorly fitted or top-dose-only effect; inactive means no such curve, though single readings can be large or run the other way. Potencies of inconclusive entries are left out as doubtful fits.

What follows are compounds tested against Rap guanine nucleotide exchange factor 3 (Homo sapiens) (UniProt O95398) (assay: qHTS for Antagonist of cAMP-regulated guanine nucleotide exchange factor 3 (EPAC1): primary screen). Conditions: EPAC1 GEF assay, Rap1b-BODIPY-GDP exchange fluorescence; series mostly up to 115 µM.
UniProt O95398, sequence (O95398 whole entry, looked up): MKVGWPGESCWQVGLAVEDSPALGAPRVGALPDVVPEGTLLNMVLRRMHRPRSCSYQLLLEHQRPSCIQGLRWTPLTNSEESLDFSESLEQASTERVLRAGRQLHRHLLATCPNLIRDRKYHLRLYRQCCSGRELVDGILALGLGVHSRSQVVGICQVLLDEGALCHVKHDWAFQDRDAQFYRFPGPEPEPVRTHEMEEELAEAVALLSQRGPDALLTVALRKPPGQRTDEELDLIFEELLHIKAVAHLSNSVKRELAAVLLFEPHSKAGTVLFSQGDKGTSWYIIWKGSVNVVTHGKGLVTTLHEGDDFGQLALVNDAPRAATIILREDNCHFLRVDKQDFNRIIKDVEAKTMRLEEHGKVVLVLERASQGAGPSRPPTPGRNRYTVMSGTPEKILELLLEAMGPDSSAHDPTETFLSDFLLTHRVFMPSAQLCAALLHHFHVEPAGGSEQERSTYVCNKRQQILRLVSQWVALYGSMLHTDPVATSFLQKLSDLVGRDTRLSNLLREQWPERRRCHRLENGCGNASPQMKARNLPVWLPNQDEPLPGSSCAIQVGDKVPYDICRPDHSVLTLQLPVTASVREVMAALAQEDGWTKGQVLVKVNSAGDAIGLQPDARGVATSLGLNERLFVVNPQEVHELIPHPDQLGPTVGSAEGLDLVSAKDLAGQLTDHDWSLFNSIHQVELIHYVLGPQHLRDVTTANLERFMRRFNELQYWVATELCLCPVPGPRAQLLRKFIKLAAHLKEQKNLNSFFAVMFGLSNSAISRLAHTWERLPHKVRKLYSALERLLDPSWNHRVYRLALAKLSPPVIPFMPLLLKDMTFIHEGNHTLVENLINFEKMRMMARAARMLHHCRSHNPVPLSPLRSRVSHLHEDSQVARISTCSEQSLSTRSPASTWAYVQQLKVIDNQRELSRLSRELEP
Further: nearly all actives have a fitted effect of over 50% in size.
Potency means the concentration at half of the fitted maximal effect; tags describe the fitted curve by direction and shape.

Row | SMILES | Potency
1 | O=C(CNC(=S)N(CCCN1CCOCC1)Cc1cccs1)NC1CCCCCCC1 | inconclusive [inhibitor, single point]
2 | COc1cc2nc(NC(=O)c3ccc(F)cc3Cl)sc(=O)c2cc1OC | inconclusive [inhibitor, partial curve]
3 | CCOC(=O)Cc1cc(=O)n2[nH]c(-c3ccccc3)c(-c3ccccc3)c2n1 | inconclusive [inhibitor, full curve]
4 | CC1CN(c2ccccc2)NC1=O (stereo not drawn) | inactive
5 | CCn1c(SC(C)C(=O)O)nnc1-c1cccnc1 (stereo not drawn) | inconclusive [inhibitor, partial curve]
6 | Cc1ccc(S(=O)(=O)/N=C2\C=C(Nc3cccc(C(=O)O)c3)C(=O)c3ccccc32)c(C)c1 | inconclusive [inhibitor, partial curve]
7 | Cc1ccc(-c2cc(C(=O)N3CCc4ccccc4C3)[nH]n2)cc1C | inconclusive [inhibitor, partial curve]
8 | O=Cc1ccc2oc3nc4n(c(=O)c3c(=O)c2c1)CCCS4 | inactive
9 | c1ccc(CSc2nnc(-c3cccs3)o2)cc1 | inactive
10 | CCOC(=O)N/N=C/c1ccc(OCCSc2ccc(Cl)cc2)c(OC)c1 | inconclusive [inhibitor, single point]
11 | O=S(=O)(Nc1ccc(Cl)cc1NS(=O)(=O)c1ccccc1)c1ccccc1 | inconclusive [inhibitor, single point]
12 | O=C(CN1CCc2ccccc2C1)Nc1cccc(S(=O)(=O)N2CCOCC2)c1 | inconclusive [inhibitor, single point]
13 | CC(C)(C)NC(=O)COC(=O)c1ccc(Cl)c(S(N)(=O)=O)c1 | inactive
14 | COc1ccccc1CNC(=O)C1(C)CCN1C(=O)C1(c2ccccc2)CC1 (stereo not drawn) | inactive
15 | C(=N\Nc1nc2ccccc2[nH]1)/c1ccccn1 | inconclusive [inhibitor, single point]
16 | COc1ccc(/C(O)=C2/C(=O)C(=O)N(CCN(C)C)C2c2cccnc2)cc1C (stereo not drawn) | inconclusive [inhibitor, partial curve, poor fit]
17 | Cc1ccc2nc(N3C(=O)C(O)=C(C(=O)c4ccco4)C3c3ccc(C)o3)sc2c1 (stereo not drawn) | inconclusive [inhibitor, partial curve]
18 | COc1cccc(CNC(=O)C2CCN(S(=O)(=O)c3ccc4c(c3)NC(=O)C(C)S4)CC2)c1 (stereo not drawn) | inconclusive [inhibitor, full curve, poor fit]
19 | CC(Sc1nc2ccccc2c(=O)n1CC1CCCO1)C(=O)N(C)Cc1ccccc1 (stereo not drawn) | inactive
20 | CCCCn1c(SCc2ccc(Cl)cc2)nc2c1c(=O)[nH]c(=O)n2C | inactive
21 | S=C(Nc1ccc(Br)cc1)NC1CCN(Cc2ccccc2)CC1 | inconclusive [inhibitor, single point]
22 | COc1ccc(NC(=O)CCNS(=O)(=O)c2cccc3nonc23)cc1 | inconclusive [inhibitor, single point]

Row | SMILES | Potency
23 | O=C1/C(=C/c2ccccn2)COc2ccccc21 | inactive
24 | O=C(NCC(c1ccco1)N1CCCC1)c1ccc(Cl)c(S(=O)(=O)N2CCc3ccccc32)c1 (stereo not drawn) | inactive
25 | Cc1csc2c(N3CCCCC3)ncnc12 | inactive
26 | CN(C)/C=C/C(=O)c1ccc(S(=O)(=O)c2ccccc2)cc1 | inconclusive [inhibitor, single point]
27 | CCN(CC(=O)Nc1ccc(NC(C)=O)cc1)CC(=O)Nc1ccc(Cl)c(Cl)c1 | inconclusive [inhibitor, full curve, poor fit]
28 | CN(C)/C=C/C(=O)c1ccc(Br)s1 | inconclusive [inhibitor, partial curve]
29 | COc1cc(/C=C/c2cc(C(F)(F)F)[nH]c(=O)n2)cc(OC)c1OC | inconclusive [inhibitor, single point]
30 | O=C(NCCC(F)(F)F)c1cccc2c(-c3ccc(F)c(F)c3)coc12 | inactive
31 | CCC[C@H]1CC(=O)C=C(c2ccc(OC)cc2)ON1C(=O)OC(C)(C)C | inconclusive [inhibitor, partial curve]
32 | O=C(CCc1ccc(S(=O)(=O)NCc2ccccc2)cc1)NCc1cccnc1 | inconclusive [inhibitor, single point]
33 | CC1(C(=O)NS(=O)(=O)c2cccc(Cl)c2)CCN1C(=O)CCc1ccccc1 (stereo not drawn) | inconclusive [inhibitor, single point]
34 | O=c1c(Cc2c(F)cccc2Cl)c(O)ccn1CCc1ccccn1 | inconclusive [inhibitor, full curve, poor fit]
35 | O=C(CSc1nnc(-c2cnccn2)n1Cc1ccco1)c1ccc(Cl)cc1 | inconclusive [inhibitor, single point]
36 | CN1CCN(CC(O)COc2ccccc2)CC1 (stereo not drawn) | inconclusive [inhibitor, single point]
37 | CC1(C(=O)Nc2ccc(Cl)c(Cl)c2)CCN1Cc1ccccc1OC(F)F (stereo not drawn) | inconclusive [inhibitor, full curve, poor fit]
38 | Cc1cccc(C)c1NC(=O)CN1C(=O)S/C(=C\c2cccn2-c2cccc(C(=O)O)c2)C1=O | inconclusive [inhibitor, full curve]
39 | CC(SC1=NCCN1S(=O)(=O)c1ccccc1)c1ccccc1 (stereo not drawn) | inconclusive [inhibitor, single point]
40 | Cc1ccc(CN(C)C(=O)c2cc(Br)c(Br)s2)o1 | inconclusive [inhibitor, single point]
41 | O=[N+]([O-])c1cccc(C=NN2CCCCCC2)c1 | inactive
42 | COc1ccc(OC(F)(F)F)cc1CC1(C)C(=O)Nc2ccc(S(=O)(=O)NC3CCCCC3)cc21 (stereo not drawn) | inconclusive [inhibitor, full curve, poor fit]
43 | Cc1cccc(NC(=S)Nc2cccc(C(F)(F)F)c2)n1 | inconclusive [inhibitor, partial curve]
